Target: T1, PD-L1 on mouse melanoma B16F10 cells (control pLKO/B16F10 and DRG2 knock-down shDRG2/B16F10) (mouse, UniProt Q9EP73)
T1 construct: whole, on cells; Same protein in control and DRG2 knock-down cells; the difference reported is the cell's state (surface location of PD-L1), not a variant of the protein; also called programmed death-ligand 1; CD274
Assay: flow cytometry, recombinant PD-1 Fc on fixed B16F10 cells, anti-human Alexa Fluor 488 secondary
Procedure: Specifically, FIG. 4A illustrates flow cytometry results for interactions between recombinant PD-1 and PD-L1 in melanoma.
To measure PD-1 and PD-L1 protein interactions, suspension cells were immobilized with 4% paraformaldehyde at room temperature for 15 minutes and incubated with a recombinant human PD-1 Fc protein (R&D Systems) for 1 hour. An anti-human Alexa Fluor 488 dye conjugate (Life Technologies) was used as a secondary antibody. Nuclei were stained with DAPI (blue; Life Technologies). Then, the fluorescence intensity of Alexa Fluor 488 dye was measured using a FACS flow cytometry analyzer (Becton Dickinson, Inc.).

T1 sequence (Q9EP73 19-290, one chain of several): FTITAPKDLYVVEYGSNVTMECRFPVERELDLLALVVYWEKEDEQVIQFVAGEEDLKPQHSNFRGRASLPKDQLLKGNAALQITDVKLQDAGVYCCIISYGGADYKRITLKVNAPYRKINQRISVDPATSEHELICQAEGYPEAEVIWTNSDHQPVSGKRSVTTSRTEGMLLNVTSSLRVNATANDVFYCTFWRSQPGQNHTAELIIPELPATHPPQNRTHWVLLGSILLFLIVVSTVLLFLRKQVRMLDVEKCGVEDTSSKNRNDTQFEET

B1: recombinant human PD-1 Fc protein (R&D Systems) (Fc fusion)
chain: not shown
notes: Bought reagent (R&D Systems); also called recombinant PD-1; PD-1 protein; not shown: Fc part of the bought fusion protein
B1: binds.
